{"source": "paper PMC6042961", "binders": {"B1": {"name": "human FRMD8-V5 (protein, UniProt Q9BZ67-1 1-464)", "chain": "MDGTEGSAGQPGPAERSHRSSVSSVGARAADVLVYLADDTVVPLAVENLPSLSAHELHRAVREVLQLPDIALDVFALWLVSPLLEVQLKPKHQPYKLGRQWPELLLRFTSAPDDDVAMDEPFLQFRRNVFFPKRRELQIHDEEVLRLLYEEAKGNVLAARYPCDVEDCEALGALVCRVQLGPYQPGRPAACDLREKLDSFLPAHLCKRGQSLFAALRGRGARAGPGEQGLLNAYRQVQEVSSDGGCEAALGTHYRAYLLKCHELPFYGCAFFHGEVDKPAQGFLHRGGRKPVSVAISLEGVHVIDSREKHVLLGLRFQELSWDHTSPEEEEPILWLEFDGDSEGTPVNKLLKIYSKQAELMSSLIEYCIELSQAAEPAGPQDSATGSPSDPSSSLAPVQRPKLRRQGSVVSSRIQHLSTIDYVEDGKGIRRVKPKRTTSFFSRQLSLGQGSYTVVQPGDSLEQG"}}, "test_in_all_cases": "co-IP; lysates in 1% Triton X-100, 150 mM NaCl, 50 mM Tris-HCl pH 7.5; anti-HA or anti-V5 magnetic beads 1 hr at 4°C; wash with 300 mM NaCl; western blot; HEK293T cells (wild type, ADAM17 KO, FRMD8 KO, or iRhom1/2 DKO reconstituted with iRhom2^WT-3xHA; with or without 200 nM PMA for 30 min)", "key": {"[1]": {"biological_target": "T1, human iRhom2^Δ200-3xHA (human) (UniProt Q6PJF5)", "T1 sequence": "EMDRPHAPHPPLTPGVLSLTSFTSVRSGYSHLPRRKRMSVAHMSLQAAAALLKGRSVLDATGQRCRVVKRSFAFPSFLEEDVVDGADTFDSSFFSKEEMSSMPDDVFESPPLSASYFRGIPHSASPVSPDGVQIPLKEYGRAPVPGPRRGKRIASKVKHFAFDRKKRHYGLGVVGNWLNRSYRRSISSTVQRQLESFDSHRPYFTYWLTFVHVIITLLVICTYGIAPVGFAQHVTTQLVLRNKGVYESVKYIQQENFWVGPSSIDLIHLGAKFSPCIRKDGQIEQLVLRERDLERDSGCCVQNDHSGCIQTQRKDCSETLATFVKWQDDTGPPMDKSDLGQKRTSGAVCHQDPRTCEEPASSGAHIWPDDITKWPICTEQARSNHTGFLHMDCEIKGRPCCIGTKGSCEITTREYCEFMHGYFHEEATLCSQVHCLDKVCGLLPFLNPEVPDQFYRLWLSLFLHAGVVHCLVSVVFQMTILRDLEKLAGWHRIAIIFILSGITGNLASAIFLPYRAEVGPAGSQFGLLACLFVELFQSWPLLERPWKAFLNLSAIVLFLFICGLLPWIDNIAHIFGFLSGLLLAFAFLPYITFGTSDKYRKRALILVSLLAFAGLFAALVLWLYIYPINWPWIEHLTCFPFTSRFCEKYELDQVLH"}, "[2]": {"biological_target": "T2, human iRhom2^Δ300-3xHA (human) (UniProt Q6PJF5)", "T2 sequence": "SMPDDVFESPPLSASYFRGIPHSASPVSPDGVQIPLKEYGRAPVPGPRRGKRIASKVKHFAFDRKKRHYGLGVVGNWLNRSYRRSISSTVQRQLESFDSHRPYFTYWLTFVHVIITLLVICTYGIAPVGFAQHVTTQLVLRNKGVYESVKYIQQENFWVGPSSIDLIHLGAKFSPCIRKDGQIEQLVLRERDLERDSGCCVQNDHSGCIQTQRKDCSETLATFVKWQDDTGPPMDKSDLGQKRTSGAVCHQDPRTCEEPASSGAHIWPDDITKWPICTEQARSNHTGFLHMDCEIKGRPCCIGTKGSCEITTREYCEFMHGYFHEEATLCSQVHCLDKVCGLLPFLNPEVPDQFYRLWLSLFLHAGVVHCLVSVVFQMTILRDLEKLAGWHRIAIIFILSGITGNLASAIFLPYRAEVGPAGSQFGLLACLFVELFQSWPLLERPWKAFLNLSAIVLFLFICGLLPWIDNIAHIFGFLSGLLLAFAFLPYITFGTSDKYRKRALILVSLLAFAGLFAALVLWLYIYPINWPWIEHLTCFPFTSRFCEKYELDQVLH"}, "[3]": {"biological_target": "T3, human iRhom2^Δ382-3xHA (human) (UniProt Q6PJF5)", "T3 sequence": "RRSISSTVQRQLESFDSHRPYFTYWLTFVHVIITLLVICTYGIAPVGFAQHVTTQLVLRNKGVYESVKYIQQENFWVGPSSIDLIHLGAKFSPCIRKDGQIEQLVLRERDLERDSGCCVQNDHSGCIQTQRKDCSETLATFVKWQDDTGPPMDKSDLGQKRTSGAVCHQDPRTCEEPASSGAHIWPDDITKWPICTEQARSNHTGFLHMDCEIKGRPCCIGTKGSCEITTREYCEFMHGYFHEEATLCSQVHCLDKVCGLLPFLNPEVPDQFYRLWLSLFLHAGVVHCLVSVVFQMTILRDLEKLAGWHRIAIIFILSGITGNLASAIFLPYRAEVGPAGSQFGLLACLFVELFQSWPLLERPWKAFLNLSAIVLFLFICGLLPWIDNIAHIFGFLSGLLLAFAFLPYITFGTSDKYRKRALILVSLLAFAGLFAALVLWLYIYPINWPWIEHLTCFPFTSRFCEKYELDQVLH"}, "[4]": {"biological_target": "T4, mouse iRhom2^cub-3xHA (mouse) (UniProt Q80WQ6)", "T4 sequence": "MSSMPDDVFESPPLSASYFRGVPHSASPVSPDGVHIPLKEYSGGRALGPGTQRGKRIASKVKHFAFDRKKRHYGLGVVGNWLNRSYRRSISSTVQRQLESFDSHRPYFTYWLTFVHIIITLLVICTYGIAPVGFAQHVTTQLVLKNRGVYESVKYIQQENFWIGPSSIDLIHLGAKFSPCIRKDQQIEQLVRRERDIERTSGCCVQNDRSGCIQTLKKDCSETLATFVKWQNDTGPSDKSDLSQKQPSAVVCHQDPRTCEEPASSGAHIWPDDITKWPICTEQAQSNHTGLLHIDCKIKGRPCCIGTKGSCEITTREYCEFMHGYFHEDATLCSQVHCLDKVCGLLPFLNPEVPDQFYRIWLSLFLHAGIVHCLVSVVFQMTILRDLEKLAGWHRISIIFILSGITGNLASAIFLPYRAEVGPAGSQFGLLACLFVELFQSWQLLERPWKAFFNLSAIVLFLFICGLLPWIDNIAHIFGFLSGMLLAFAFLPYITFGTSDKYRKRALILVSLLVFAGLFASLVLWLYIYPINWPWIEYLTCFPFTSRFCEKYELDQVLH"}}, "note": "Results are given in words; binding and its absence hold for the method and conditions named. Binding seen in cells or lysates may run through a third protein. Some entries that bind do so weakly or less than the wild type. Where a sequence is shown, tags or fusion partners need not be part of it."}
{"binder": "B1", "values": [{"measurement": "binding", "setting": "[1]", "result": "binds"}, {"measurement": "binding", "setting": "[2]", "result": "no binding"}, {"measurement": "binding", "setting": "[3]", "result": "no binding"}, {"measurement": "binding", "setting": "[4]", "result": "no binding"}]}
